The source gives no read counts; variants with many changes may rest on few reads.
B1: CPEB3 Ribozyme (parent)
chain: UAACAGGGGGCCACAGCAGAAGCGUUCACGUCGCAGCCCCUGUCAGAUUCUGGUGAAUCUGCGAAUUCUGCUGUAUAUCUC

Variants of: B1
Experiment: self-cleavage, relative activity (ratio to wild type); higher = more cleavage; in vitro, sequencing
Summary of the method: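 CPEB3 self-cleaving ribozyme mutant libraries were made by rounds of error-prone PCR, barcoded, and transcribed in vitro with T7 RNA polymerase for 5 hours at 37°C. Cleavage occurred during transcription and a 15 min DNase I step before EDTA stop. RNAs were reverse transcribed with template switching and Illumina-sequenced, with DNA sequencing mapping barcodes to variants. Relative activity is the variant's cleaved/total read fraction divided by wild type's (minimum 5 reads), averaged across three batches.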

**Q.** With C14U A28G A47G G52U as the variant, how does the self-cleavage read?
**A.** 0.88

**Q.** Which self-cleavage does the source give for A13U G16U A21G U31C U69C U72C here?
**A.** 0.16

**Q.** Which self-cleavage does the source give for C14U A21G A47G here?
**A.** 0.91

**Q.** With A13U G24A U31G C40G A57G A64U U66C as the variant, how does the self-cleavage read?
**A.** 0.07

**Q.** Which self-cleavage does the source give for A13U U48C U78C U80A here?
**A.** 0.47

**Q.** With A13U U49A U54C U60A U69C as the variant, how does the self-cleavage read?
**A.** 0.1

**Q.** Which self-cleavage does the source give for A13U U31A A65U U69C U76A here?
**A.** 0.1

**Q.** With A13U C71U U80C as the variant, how does the self-cleavage read?
**A.** 1.25

**Q.** With C14U A15G G30A A64G as the variant, how does the self-cleavage read?
**A.** 0.22

**Q.** Which self-cleavage does the source give for A13U C39G U43C U49C U74A here?
**A.** 0.08

**Q.** With A13U U60A U69A U74C A75U as the variant, how does the self-cleavage read?
**A.** 0.26

**Q.** With A13U G30U U54A as the variant, how does the self-cleavage read?
**A.** 0.1

**Q.** Which self-cleavage does the source give for A13U U72C U78C here?
**A.** 1.33

**Q.** With C14A U43C A56U C59A as the variant, how does the self-cleavage read?
**A.** 0.13

**Q.** Which self-cleavage does the source give for A13U G33A A47G A64G C68G U78A here?
**A.** 0.11

**Q.** With A13U U25C A75G as the variant, how does the self-cleavage read?
**A.** 0.1

**Q.** For A13U U26C U41A U80C, which self-cleavage is on record?
**A.** 0.09

**Q.** With C14A A18G A35G as the variant, how does the self-cleavage read?
**A.** 0.87

**Q.** For C14A A15G U26A A64G, which self-cleavage is on record?
**A.** 0.55

**Q.** Which self-cleavage does the source give for C14G A15G U31A U60C A65G U80C here?
**A.** 0.08

**Q.** With C14U A15C A35U U60C U69C as the variant, how does the self-cleavage read?
**A.** 0.09

**Q.** With A13U U31A U49C as the variant, how does the self-cleavage read?
**A.** 0.26

**Q.** Which self-cleavage does the source give for A13U U26C A56G A64U A65G here?
**A.** 0.08

**Q.** With A13U U26C U43C U49C U80A as the variant, how does the self-cleavage read?
**A.** 0.21

**Q.** Which self-cleavage does the source give for A13U U25C C71G here?
**A.** 0.04

**Q.** For A13U U43C U58C A65U, which self-cleavage is on record?
**A.** 0.07

**Q.** For C14U A20G U26A, which self-cleavage is on record?
**A.** 0.85

**Q.** Which self-cleavage does the source give for A13U U31C U51A A64G U66C here?
**A.** 0.14

**Q.** For A13U U25C A28G U58C A64G U69C U80A, which self-cleavage is on record?
**A.** 0.06

**Q.** For A13U U31A U41A U72C, which self-cleavage is on record?
**A.** 0.21

**Q.** Which self-cleavage does the source give for A13U G33A A56U U58A U69C U72C here?
**A.** 0.07

**Q.** With A13U U41C U72A U80C as the variant, how does the self-cleavage read?
**A.** 1.2

**Q.** Which self-cleavage does the source give for C14A A15U U25C A35U U54A here?
**A.** 0.05

**Q.** For A13U U26C U41C U49C A57G, which self-cleavage is on record?
**A.** 0.07

**Q.** With C14G A18G A20C as the variant, how does the self-cleavage read?
**A.** 0

**Q.** For A13U U31C A35U C40U A45U, which self-cleavage is on record?
**A.** 0.07

**Q.** For A13U U41C U51C C62U, which self-cleavage is on record?
**A.** 0.25

**Q.** Which self-cleavage does the source give for A13U U26C U80A here?
**A.** 0.67

**Q.** Which self-cleavage does the source give for A13U U26A A64U A75U here?
**A.** 0.25

**Q.** For A13U U41C U49A A64G U67C, which self-cleavage is on record?
**A.** 0.25

**Q.** With A13U U25C A28U A47G as the variant, how does the self-cleavage read?
**A.** 0.09

**Q.** Which self-cleavage does the source give for A13U U25C U31C U48C here?
**A.** 0.07

**Q.** Which self-cleavage does the source give for A13U G33U A56G here?
**A.** 0.23

**Q.** For C14A G33A C59A U69C, which self-cleavage is on record?
**A.** 0.11

**Q.** Which self-cleavage does the source give for A13U U60A A65U U67C here?
**A.** 0.29

**Q.** With A13U G19A U26A U69C as the variant, how does the self-cleavage read?
**A.** 0.12

**Q.** For C14A C23U U26A A45U U78C, which self-cleavage is on record?
**A.** 0.14

**Q.** For C14U A35G U43C U51A, which self-cleavage is on record?
**A.** 1.31

**Q.** For A13U U26C A35G G42A A56G U72C U78A, which self-cleavage is on record?
**A.** 0.13

**Q.** With A13U U41C U54G A64G A65G U72G as the variant, how does the self-cleavage read?
**A.** 0.19

**Q.** With A13U U25C U60C as the variant, how does the self-cleavage read?
**A.** 0.1

**Q.** For A13U U48G U76A, which self-cleavage is on record?
**A.** 0.24

**Q.** With A13U U25C U26A U41C U76A as the variant, how does the self-cleavage read?
**A.** 0.29

**Q.** Which self-cleavage does the source give for A13U G30A C50G C62G here?
**A.** 0.09

**Q.** Which self-cleavage does the source give for A13U C32U U41A U54C U72C here?
**A.** 0.17

**Q.** For C14U A15G G22U U26C C59G, which self-cleavage is on record?
**A.** 0.24

**Q.** Which self-cleavage does the source give for C14U A15U U72A here?
**A.** 1.15

**Q.** Which self-cleavage does the source give for A13U G63C A65G U66C here?
**A.** 0.2

**Q.** With A13U U26C U69C C71U A75G as the variant, how does the self-cleavage read?
**A.** 0.09

**Q.** Which self-cleavage does the source give for A13U U25A C37A U41C U43A U80C here?
**A.** 0.21

**Q.** For A13U U48C U58C, which self-cleavage is on record?
**A.** 0.45

**Q.** Which self-cleavage does the source give for C14G U25C U31A A35C C39A U78C here?
**A.** 0.16

**Q.** With A13U U26C U31C A45U U69C U72C as the variant, how does the self-cleavage read?
**A.** 0.06

**Q.** For C14A U31A U49C, which self-cleavage is on record?
**A.** 0.08

**Q.** For A13U G36C U67A, which self-cleavage is on record?
**A.** 0.34

**Q.** Which self-cleavage does the source give for A13U U54A C71U U72C here?
**A.** 0.31

**Q.** With A13U U26C U67C as the variant, how does the self-cleavage read?
**A.** 0.16

**Q.** For A13U U41C A45G U67C, which self-cleavage is on record?
**A.** 0.15

**Q.** Which self-cleavage does the source give for C14A U43C U60A A77G here?
**A.** 0.19

**Q.** Which self-cleavage does the source give for C14U A15G A35U here?
**A.** 1.07

**Q.** Which self-cleavage does the source give for A13U G61C A64C here?
**A.** 0.23

**Q.** For A13U G36A U41C U51A, which self-cleavage is on record?
**A.** 0.28

**Q.** For A13U U31A U51A U54C U67A, which self-cleavage is on record?
**A.** 0.2

**Q.** Which self-cleavage does the source give for A13U G22U A45G U54C A75U here?
**A.** 0.09

**Q.** Which self-cleavage does the source give for C14U A35G U49C A56G here?
**A.** 1.3

**Q.** With C14A A35U U49A A57G as the variant, how does the self-cleavage read?
**A.** 0.43

**Q.** For A13U U26C A77G U78C, which self-cleavage is on record?
**A.** 0.29

**Q.** For C14U A35G A75G U76C, which self-cleavage is on record?
**A.** 1.3

**Q.** With A13U U25C U31A G52A A65U A77G as the variant, how does the self-cleavage read?
**A.** 0.08

**Q.** For A13U U25C A35G U66G, which self-cleavage is on record?
**A.** 0.09

**Q.** With A13U U26G A28G U43C as the variant, how does the self-cleavage read?
**A.** 0.57

**Q.** Which self-cleavage does the source give for C14A U43C C59U U60A here?
**A.** 0.23

**Q.** Which self-cleavage does the source give for A13U C38U G55U A56U here?
**A.** 0.22

Reference: the RNAGym collection of RNA variant scans (doi:10.1093/nar/gkz1192)
